In brackets after ≈: the same amount, converted by molar mass.
What was measured:
[1] = system: TK- Cheng C 158/77 (herpes simplex virus missing a specific thymidine kinase); experiment: microbe, parasite or virus in culture; details: Human alphaherpesvirus 1, E6SM, read-out: Minimum inhibiting concentration ED50 HSV-1 TK- Cheng C 158/77
Description: (§1) The tests were based on the inhibition of virus-induced cytopathogenesis in cell cultures. A standard procedure is described by De Clercq et al., J. Infect. Dis. 141, 463 (1980) which is incorporated herein by way of reference.
(§2) Further, the inhibiting effect of the test compounds on virus multiplication in E6 SM cell cultures was measured making use of herpes simplex viruses missing a specific thymidine kinase. Three different strains were used: TK^- Cheng, TK^- Field and a clinically isolated strain VMW/837.

[2] = system: TK- Field C 137/101 (herpes simplex virus missing a specific thymidine kinase); experiment: microbe, parasite or virus in culture; details: Human alphaherpesvirus 2, E6SM, read-out: Minimum inhibiting concentration ED50 HSV-2 TK- Field C 137/101
Description: as §1, §2

[3] = system: VMW/837 (herpes simplex virus missing a specific thymidine kinase); experiment: Inhibition of TK- herpes simplex virus, clinically isolated strain VMW/837, in E6 SM cell cultures; format: cell-based; details: E6SM, read-out: Minimum inhibiting concentration ED50 VV VMW/837 #3
[4] = system: Herpes simplex virus-1 TK- B2006; experiment: microbe, parasite or virus in culture; details: Human alphaherpesvirus 1, E6SM, read-out: Minimum inhibitory concentration Herpes simplex virus-1 TK- B2006
Description: as §1
(§3) The cytotoxicity and antiviral activity of compound 24 were tested in various cell cultures.

[5] = system: Herpes simplex virus-1 TK- VMW1837; experiment: microbe, parasite or virus in culture; details: Human alphaherpesvirus 1, E6SM, read-out: Minimum inhibitory concentration Herpes simplex virus-1 TK- VMW1837
Description: as §1, §3

SMILES	EC50 [1] [µg/mL]	EC50 [2] [µg/mL]	EC50 [3] [µg/mL]	EC50 [4] [µg/mL]	EC50 [5] [µg/mL]
NC(=O)c1ncn(C2O[C@H](CO)[C@@H](O)[C@H]2O)n1 (stereo partly shown) [Ribavirin, 1-ribofuranosyl-3-carbamoyl-1,2,4-triazol]	> 400	> 400	> 400	100 (≈ 409 µM)	> 400
O=c1[nH]c(=O)n([C@H]2C[C@H](O)[C@@H](CO)O2)cc1I [IDU, 5-iodo-2'-deoxyuridine]	10 (≈ 28.2 µM)	10 (≈ 28.2 µM)	7 (≈ 19.8 µM)	–	–
O=c1[nH]c(=O)n([C@@H]2CO[C@H](CO)[C@@H](O)C2)cc1I [Compound 18, 1,5-Anhydro-2,3-dideoxy-2-(5-iodouracil-1-yl)-D-arabino-hexitol]	> 200	> 200	1 (≈ 2.72 µM)	–	–
Nc1ccn([C@@H]2CO[C@H](CO)[C@@H](O)C2)c(=O)n1 [Compound 20, 1,5-Anhydro-2-(cytosin-1-yl)-2,3-dideoxy-D-arabinohexitol]	2 (≈ 8.29 µM)	2 (≈ 8.29 µM)	2 (≈ 8.29 µM)	–	–
Cc1cn([C@@H]2CO[C@H](CO)[C@@H](O)C2)c(=O)[nH]c1=O [Compound 17, 1,5-Anhydro-2,3-dideoxy2-(thymin-1-yl)-D-arabinohexitol]	> 200	> 200	> 200	–	–
Nc1nc2c(ncn2[C@@H]2CO[C@H](CO)[C@@H](O)C2)c(=O)[nH]1 [Compound 13, 1,5-Anhydro-2-(guanin-9-yl)-2,3-dideoxy-D-arabinohexitol]	20 (≈ 71.1 µM)	20 (≈ 71.1 µM)	2 (≈ 7.11 µM)	–	–
Nc1ncnc2c1ncn2[C@@H]1CO[C@H](CO)[C@@H](O)C1 [Compound 10, 1,5-Anhydro-2-(adenin-9-yl) 2,3-dideoxy-D-arabinohexitol]	150 (≈ 565 µM)	70 (≈ 264 µM)	20 (≈ 75.4 µM)	–	–
CCc1cn([C@@H]2CO[C@H](CO)[C@@H](O)C2)c(=O)[nH]c1=O [Compound 23, 1,5-Anhydro-2,3-dideoxy-2-(5-ethyluracil-1-yl)-D-arabinohexitol]	–	–	–	> 200	> 200
O=c1[nH]c(=O)n([C@H]2C[C@H](O)[C@@H](CO)O2)cc1/C=C/Br [BVDU, E-5-(2-bromovinyl)-2'-deoxyuridine]	10 (≈ 30 µM)	10 (≈ 30 µM)	4 (≈ 12 µM)	1 (≈ 3 µM)	70 (≈ 210 µM)
Nc1nccc2c1ncn2[C@@H]1C[C@H](CO)[C@@H](O)[C@H]1O (relative stereo) [C-c^3 Ado, carbocyl 3-deaza adenosine]	70 (≈ 265 µM)	> 400	> 400	70 (≈ 265 µM)	> 200
Nc1ncnc2c1ncn2C[C@H](O)CO [(S)-DHPA, (S)-9-(2,3-dihydroxypropyl)-adenine]	400 (≈ 1910 µM)	> 400	> 400	100 (≈ 478 µM)	> 200

From patent US5607922A, “1,5-anhydrohexitol nucleoside analogues” (Stichting Rega VZW, priority 1992, dated 1997)
